# Results from PMC4336329 (PLoS ONE, 2015).
# Out of some 310,000 compounds screened, about 14,000 (4.5%) showed an effect of 50% or more. Effects have a minus sign here. Some of the results follow.
# Biological target: human ether-à-go-go-related gene (hERG) potassium channel (human, UniProt Q12809)
# Experiment: primary screen, population patch clamp on CHO cells stably expressing hERG
# 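Also: peak tail current of the secondary pulse compared with the same well before compound.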
# human ether-à-go-go-related gene (hERG) potassium channel, sequence (Q12809 whole entry, looked up): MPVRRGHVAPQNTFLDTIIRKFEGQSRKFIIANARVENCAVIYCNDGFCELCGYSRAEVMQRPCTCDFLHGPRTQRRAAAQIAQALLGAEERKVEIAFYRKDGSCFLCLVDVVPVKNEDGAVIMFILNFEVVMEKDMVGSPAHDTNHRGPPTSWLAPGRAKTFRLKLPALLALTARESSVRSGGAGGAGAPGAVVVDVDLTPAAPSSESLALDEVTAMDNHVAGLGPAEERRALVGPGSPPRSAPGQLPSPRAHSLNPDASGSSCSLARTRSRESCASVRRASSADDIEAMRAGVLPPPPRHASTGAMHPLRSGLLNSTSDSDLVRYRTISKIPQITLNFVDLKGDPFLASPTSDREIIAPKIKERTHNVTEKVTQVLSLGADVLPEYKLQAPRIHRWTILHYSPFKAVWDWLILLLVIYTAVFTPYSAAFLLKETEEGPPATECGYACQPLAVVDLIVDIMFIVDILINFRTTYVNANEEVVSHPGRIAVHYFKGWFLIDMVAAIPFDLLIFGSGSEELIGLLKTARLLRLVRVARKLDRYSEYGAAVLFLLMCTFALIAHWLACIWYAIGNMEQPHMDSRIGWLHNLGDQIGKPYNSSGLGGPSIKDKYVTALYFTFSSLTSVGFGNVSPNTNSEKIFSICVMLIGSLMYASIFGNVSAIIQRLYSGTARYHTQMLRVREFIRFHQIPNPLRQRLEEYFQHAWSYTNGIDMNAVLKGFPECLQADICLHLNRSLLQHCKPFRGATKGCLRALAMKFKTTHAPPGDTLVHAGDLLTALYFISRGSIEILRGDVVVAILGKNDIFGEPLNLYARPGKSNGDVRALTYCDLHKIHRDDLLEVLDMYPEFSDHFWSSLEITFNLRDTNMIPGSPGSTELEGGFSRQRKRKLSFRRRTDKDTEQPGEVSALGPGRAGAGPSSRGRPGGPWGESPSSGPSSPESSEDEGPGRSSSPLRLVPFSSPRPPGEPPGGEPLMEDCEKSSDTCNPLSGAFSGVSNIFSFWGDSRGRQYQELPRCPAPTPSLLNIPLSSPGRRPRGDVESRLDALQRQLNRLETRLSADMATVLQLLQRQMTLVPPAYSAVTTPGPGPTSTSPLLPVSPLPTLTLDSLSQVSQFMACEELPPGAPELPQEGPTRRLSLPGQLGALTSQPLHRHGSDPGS
row,SMILES,"hERG current change (%, negative = inhibition) at 10uM [%]"
1,COc1ccc(S(=O)(=O)NCc2nc3nc(C)cc(C)n3n2)cc1OC,5.21
2,C=CCc1cccc(C2Nc3ccccc3C(=O)N2O)c1O (centres unmarked),7.52
3,S=c1nc[nH]c2c1ncn2C1CCCC1,19.6
4,C=CCNCCOc1cccc(Br)c1,-4.37
5,CCOC(=O)c1c(NC(=O)CSc2nnc(-c3cccnc3)o2)sc(C(C)=O)c1C,-46.1
6,O=C(CSc1nnc(Cc2ccccc2)n1Cc1ccco1)NC1CCCC1,-4.94
7,Cc1[nH]nc2c1C(c1ccc(F)cc1)C(C#N)=C(N)O2 (centres unmarked),-1.43
8,O=C(Nc1nc2cc3c(cc2s1)OCCO3)c1cccs1,7.38
9,CCOc1cc(/C=C2\SC(=Nc3ccc(CC)cc3)NC2=O)ccc1OCC(=O)O,19.9
10,COc1ccccc1NC(=O)Nc1sccc1-c1nc2ccccc2s1,30.1
11,c1ccc(-c2csc3ncnc(N4CCOCC4)c23)cc1,-13.9
12,COc1ccc(/C=C/C(=O)NCc2c(C)nn(C)c2C)cc1COc1ccc(Br)cc1,-0.998
13,C[C@@H](C(=O)NCc1ccccn1)[C@H]1C[C@]1(C)[C@H](NC(=O)OCc1ccccc1)c1ccccc1,-8.22
14,Cn1c(Cn2c(=O)sc3ccccc32)nnc1SCC(=O)NCc1ccccc1Cl,-12.9
15,C[n+]1c2ccccc2nc2ccc(NCCO)cc21.[O-][Cl+3]([O-])([O-])[O-],21.7
16,CC(C)CC(=O)Nc1nnc(SCC(=O)Nc2nccs2)s1,7.61
17,CCOC(=O)c1[nH]cnc1C(=O)NC(C)C,-4.31
18,O=C(NCNC(=O)c1ccccc1)c1ccccc1,19.8
19,CCOc1ccc(S(=O)(=O)Nc2ccccc2C(=O)Nc2ccccc2N2CCOCC2)cc1,-9.11
20,COc1ccc(NC(=O)CC2SC(N3CCOCC3)=NC2=O)cc1OC (centres unmarked),9.88

row,SMILES,"hERG current change (%, negative = inhibition) at 10uM [%]"
1,CCN=C1SC(C(N)=O)CC(=O)N1CC (centres unmarked),12.9
2,CC12CCC(=O)N1C(C(=O)N1CCN(S(=O)(=O)c3ccccc3F)CC1)CS2 (centres unmarked),-30.1
3,Cc1ccc(C(=O)C(C)Oc2cccc(NC(=O)c3ccco3)c2)cc1 (centres unmarked),-13.4
4,C/C(=N\NC(=O)Cc1ccc([N+](=O)[O-])cc1)c1cccnc1,-13.8
5,O=C(NCC1CCCO1)c1cccc(C(=O)NCC2CCCO2)c1 (centres unmarked),3.37
6,c1ccc(-c2cnnn2-c2ccccc2)cc1,12.7
7,CCN(CC)S(=O)(=O)c1cc(NC(=O)c2ccc(Br)s2)ccc1C,38.2
8,Cc1ccc(S(=O)(=O)N2CCC(=O)N(CCOC(=O)Nc3cc(C)cc(C)c3)CC2)cc1,-40.7
9,Cc1nonc1NC(=O)CSc1cn[nH]n1,9.72
10,C=CCN(CC=C)C(=O)Nc1cc(OC)ccc1OC,4.66
11,CN(C)CCNC(=O)/C(=C/c1ccc(-c2ccc(Cl)cc2)o1)NC(=O)c1ccccc1,-80.9
12,C=CCn1c(SCC(=O)Nc2cccc3ccccc23)nnc1-c1cnccn1,-39.9
13,Cc1onc(-c2ccccc2Cl)c1C(=O)NCc1nc(-c2ccccc2)no1,-0.145
14,COc1ccc(NC(=O)CN2C(=O)N(C)Cc3ccccc32)c(C)c1,-11.5
15,CP(=O)(O)CCCN.Cl,7.29
16,CC1(C)CC(=O)c2c(O)c(-c3ccccc3)c(=O)n(-c3ccccc3)c2C1,-6.83
17,O=C(Cc1ccccc1)Nn1c(-c2ccccc2F)nc2ccccc2c1=O,10.3
18,Cc1ccccc1OCCCn1c(CO)nc2ccccc21,16.7
19,Cc1cc(C)c2c(=O)[nH]c(SCC(=O)c3ccc(F)c(C)c3)nc2n1,6.79
20,CCOc1ccccc1NC(=O)CC1Nc2cc(C)c(C)cc2NC1=O (centres unmarked),-2.54

row,SMILES,"hERG current change (%, negative = inhibition) at 10uM [%]"
1,Cc1ccc(SC(C)c2nc(-c3ccncc3)no2)cc1 (centres unmarked),-24.3
2,CCOCCCn1c(SCC(=O)NCc2ccco2)nc2c(sc3ccccc32)c1=O,-27.6
3,Cc1sc2nc(-c3cccs3)oc(=O)c2c1C,17.8
4,CNC(=S)NNC(=O)COc1ccccc1C,11.8
5,Cn1c(CNc2cccc(Cl)c2)nnc1SCC#N,-0.661
6,O=C(Nc1nnc(-c2cccs2)o1)c1cccc(Oc2ccccc2)c1,-1.89
7,Cc1ccc(OCc2cc(C(=O)NCc3cnn(-c4cccc(F)c4)c3)no2)cn1,-2.68
8,Cc1ccc(C)c2c(SC(C)C(=O)NCc3ccco3)nc(-c3ccccc3)nc12 (centres unmarked),-64.7
9,COc1cccc(F)c1C(=O)NC(=O)Nc1ccc2nc(C)oc2c1,5.61
10,O=C(CSc1nnc(CNC(=O)c2c(F)cccc2Cl)o1)Nc1ccc2c(c1)OCO2,5.77
11,CCOc1ccccc1/C=N/OCC(=O)NCc1ccc(F)cc1,-0.596
12,O=C(NCc1ccccc1)c1cnc2n(c1=O)CCS2,8.61
13,O=[N+]([O-])c1ccccc1/C=C/CN1CCSCC1,-5.62
14,COc1cc(C(=O)Nc2sc(C)c(C)c2C(=O)O)cc(OC)c1OC,13.4
15,O=C(NC1CCN(C(=S)NCc2ccco2)CC1)C1CCCCC1,-0.866
16,Cc1cc2oc(=O)cc(COC(=O)Cn3cnnn3)c2cc1C(C)C,-4.84
17,Cc1ccc(NS(=O)(=O)c2ccc(F)cc2)nc1,14
18,CC1(C)CC(NNCCC#N)=CC(=[N+]2CCCC2)C1.[I-],5.87
19,COc1ccccc1Oc1ccc(N2CC(C(=O)OCC(=O)c3ccccc3)CC2=O)cc1 (centres unmarked),18
